According to ChEMBL document CHEMBL1156829:
In all, about 5,400 compounds were measured (“IFI”: median about 2, highest 2% from about 22 on). The list shows a part of the results.

Experiment: NOVARTIS: Inhibition Frequency Index (IFI) - the number of HTS assays where a compound showed > 50% inhibition/induction, expressed as a percentage of the number of assays in which the compound was tested.
Type: functional

| SMILES | IFI |
| --- | --- |
| CSc1nccc(-c2cc(F)cc3c2OC(CNC(=O)C2CC(=O)c4ccccc42)C3)n1 (stereo not given) | 0% |
| Cc1ccc2c(c1)N=C(c1ccc([N+](=O)[O-])cc1)CO2 | 5.17% |
| COC(=O)c1sccc1S(=O)(=O)N1CCCC(c2[nH]ncc2-c2ccccc2)C1 (stereo not given) | 3% |
| COC(=O)C1N(C(=O)OC)c2ccc([N+](=O)[O-])cc2S1(=O)=O (stereo not given) | 0% |
| Oc1c(C(Nc2ccccn2)c2cccc(Cl)c2Cl)ccc2cccnc12 (stereo not given) | 15.4% |
| O=C(NCc1ccco1)c1ccc(OC2CCN(CC3CCCCC3)CC2)c(Cl)c1 | 1.39% |
| CC(=NNC(=S)N(C)C)c1ccccn1 | 19.8% |
| O=C(NN=CC1CC=CCC1)c1ccc([N+](=O)[O-])cc1Cl (stereo not given) | 0% |
| O=c1c2sccc2nc(SCc2cccc([N+](=O)[O-])c2)n1-c1ccc(Br)cc1 | 0% |
| COc1cccc(-c2ccc(O)c(CNCC3CCCCC3)c2)n1 | 1.98% |
| CCc1ccc(N(C(=O)CCN2CCc3ccccc32)C(C(=O)NCc2ccccc2)c2ccc(OC)c(OC)c2)cc1 (stereo not given) | 3.33% |
| COc1ccc(/C=C2\N=C(c3ccc(Cl)cc3)N(c3cc(Cl)ccc3C)C2=O)cc1OC | 0% |
| CCCCOc1ccc(NC2=NC3(CCCC3)NC(N)=N2)cc1 | 0% |
| Oc1ccc(C(CCNCCc2c[nH]c3ccccc23)c2ccccc2)cc1 (stereo not given) | 7.69% |
| C[n+]1cccc(CNC2=C(Cl)C(=O)c3ccccc3C2=O)c1 | 0% |
| COc1ccccc1CNC(=O)c1nn(-c2ccc(Cl)cc2)c(=O)c2ccccc12 | 2.38% |
| Cn1cc(S(=O)(=O)c2cccc(Cl)c2)c(=O)c2cc(F)c(N3CCCCC3)cc21 | 0% |
| CCOC(=O)C1=C(C)N=c2sc(=Cc3ccccc3OCc3ccccc3)c(=O)n2C1c1ccccc1OC(C)C (stereo not given) | 0% |
| CCCCCC1CCCc2c1[nH]c1cc(Cl)ccc1c2=O (stereo not given) | 0% |
| CC(CNC(=O)c1ccccc1)C(=O)OCC(=O)[C@@]12OC(C)(C)O[C@@H]1CC1C3CCC4=CC(=O)C=C[C@]4(C)[C@@]3(F)[C@@H](O)C[C@@]12C (stereo not given in full) | 13.8% |
| O=C(Nc1ccc(O)cc1)c1cccc(S(=O)(=O)N2CCCCC2)c1 | 0% |
| CC(=O)Nc1c(C)cc(Cl)cc1Cl | 3.23% |

| SMILES | IFI |
| --- | --- |
| O=C(O)CC12CC3CC(C1)CC(c1ccc([N+](=O)[O-])cc1)(C3)C2 | 0% |
| CCCCCN(C(=O)c1cccc(F)c1)C(CC)c1nc2ccccc2c(=O)n1-c1ccc(Cl)cc1C (stereo not given) | 1.91% |
| COc1ccc(-n2cc(-c3ccccc3)[n+]3c2SCC3)cc1 | 0% |
| CCc1ccc2[nH]c(=O)c(CN(CCN(C)C)C(=S)NCCCN(C)C)cc2c1 | 3.7% |
| Cc1ccc2c(C)nc(NC(=N)N)nc2c1 | 2.94% |
| c1cc2c(cc1Nc1c3c(nc4nncn14)CCC3)OCCO2 | 0% |
| CC1=NN(c2ccccc2)C(=O)C1=NNc1c(Br)cc(Br)cc1Br | 0% |
| COc1cc(C(C(=O)NCc2ccccc2)N(C(=O)c2snc(C(N)=O)c2N)c2ccc(C(C)C)cc2)cc(OC)c1OC (stereo not given) | 5.46% |
| COc1ccc(C(=NO)C2CC2c2ccc(Cl)cc2)cc1 (stereo not given) | 1.35% |
| CN(CCCNc1ccnc2cc(Cl)ccc12)C(=O)C1CC1 | 2.78% |
| OCc1nc2ccccc2n1Cc1ccccc1F | 1.59% |
| Cc1ccc(-c2c[n+](Cc3cccc(C)c3)c3n2CCC3)cc1 | 7.32% |
| O=C1C=CC(=O)N1c1ccc(Sc2ccc(N3C(=O)C=CC3=O)cc2)cc1 | 12.8% |
| O=C(/C=C/c1ccccn1)NCC1Cc2cc(-c3cnccn3)ccc2O1 (stereo not given) | 0% |
| O=C(Cn1cc([N+](=O)[O-])nc1[N+](=O)[O-])N1CCN(c2ccc(F)cc2)CC1 | 4.25% |
| CCCCCCCCCn1c2c(c(=N)c3c1CCC3)CCCC2 | 21.3% |
| COc1ccc(Cn2c(C)nc3cc(NC(=O)Nc4ccccc4)c(C)nc32)cc1 | 0% |
| O=C(Nc1ccccc1[N+](=O)[O-])C1CC1(c1ccccc1)c1ccccc1 (stereo not given) | 0% |
| Cc1nn(C(=O)NS(=O)(=O)c2ccccc2Cl)c(C)c1C | 0% |
| O=C(/C=C/c1cccnc1)C12CC3CC(CC(C3)C1)C2 | 0% |
| CCOC(=O)C1CCCN(C(=O)c2c(C)oc3c2C(=O)c2ccccc2C3=O)C1 (stereo not given) | 6.25% |
| COc1ccc2c(c1)C(C)=CC(C)(C)N2C(=O)CSc1nnc(-c2ccc(C)cc2)o1 | 0% |

| SMILES | IFI |
| --- | --- |
| O=C(NCc1ccccc1)NC1CC2CCCC(C1)N2Cc1ccccc1 (stereo not given) | 3.95% |
| O=c1c(NCc2ccco2)nc2cc(Cl)ccc2n1CCNc1ncc(C(F)(F)F)cc1Cl | 2.47% |
| C[n+]1ccc(/C=C/c2ccccc2F)c2ccccc21 | 14.3% |
| COc1cccc2cc(-c3csc(NC(=O)CCC(=O)NC4CCCC4)n3)c(=O)oc12 | 2.35% |
| COc1ccc(C2=C(Nc3ccc(Br)c(C)c3)c3ccccc3C2=O)cc1 | 0% |
| COc1ccc(OC)c(NC2=C(Cl)C(=O)N(c3ccc(C)c(Cl)c3)C2=O)c1 | 0% |
| O=c1c2sccc2nc(SCc2cccc([N+](=O)[O-])c2)n1C1CC1 | 0% |
| CCC(c1nc2ccccc2c(=O)n1-c1ccccc1OC)N(CCc1ccccc1)C(=O)c1ccc(F)cc1 (stereo not given) | 3.19% |
| O=C(NN1CCOCC1)c1ccc(Br)cc1 | 3.03% |
| NC(=O)CSc1nnc2ccc(-c3ccc4c(c3)OCO4)nn12 | 0% |
| O=C(Nc1ccon1)c1cc(-c2cccnc2)nc2ccc(Br)cc12 | 0% |
| Cc1nc(N(C)c2ccc(C(C)C)cc2)c2c(C)c(C(=O)Nc3cc(C)on3)sc2n1 | 1.18% |
| Cc1cc(N2CCN(C)CC2)nc2ccc(NC(=O)/C=C/c3ccc4c(c3)OCO4)cc12 | 8.33% |
| Cc1ccc(-c2cc(C(F)(F)F)n3nc(C(=O)Nc4cccc(Cl)c4Cl)cc3n2)cc1 | 0% |
| CC(=O)NCCc1ccc(O)cc1 | 1.48% |
| COCCOC(=O)C1=C(C)NC2=C(C(=O)CC(c3ccc(OC)cc3)C2)C1c1ccc(F)cc1 (stereo not given) | 3.45% |
| c1cc(-c2nc3ccccc3[nH]2)nc(-c2nc3ccccc3[nH]2)c1 | 2.98% |
| COc1ccc(-c2cncc3ccc(C(=O)NCc4ccncc4)nc23)cc1 | 0% |
| CCN(CC)S(=O)(=O)c1cc(C(=O)O)ccc1Cl | 7.94% |
| CC1(CNCc2ccccc2O)C2CC3CC(C2)CC1C3 (stereo not given) | 0% |
| CCc1ccc(-n2c(C(CC)N(CCc3ccccc3)C(=O)c3cc(OC)cc(OC)c3)nc3ccccc3c2=O)cc1 (stereo not given) | 2.78% |
